Laboratory results reported in article PMC4336329 (PLoS ONE, 2015).
Out of some 310,000 compounds screened, about 14,000 (4.5%) showed an effect of 50% or more. Effects have a minus sign here. The list shows a part of the results.

molecular target: human ether-à-go-go-related gene (hERG) potassium channel (human, UniProt Q12809); assay: primary screen, population patch clamp on CHO cells stably expressing hERG
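Also: peak tail current of the secondary pulse compared with the same well before compound.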

human ether-à-go-go-related gene (hERG) potassium channel, sequence (Q12809 whole entry, looked up): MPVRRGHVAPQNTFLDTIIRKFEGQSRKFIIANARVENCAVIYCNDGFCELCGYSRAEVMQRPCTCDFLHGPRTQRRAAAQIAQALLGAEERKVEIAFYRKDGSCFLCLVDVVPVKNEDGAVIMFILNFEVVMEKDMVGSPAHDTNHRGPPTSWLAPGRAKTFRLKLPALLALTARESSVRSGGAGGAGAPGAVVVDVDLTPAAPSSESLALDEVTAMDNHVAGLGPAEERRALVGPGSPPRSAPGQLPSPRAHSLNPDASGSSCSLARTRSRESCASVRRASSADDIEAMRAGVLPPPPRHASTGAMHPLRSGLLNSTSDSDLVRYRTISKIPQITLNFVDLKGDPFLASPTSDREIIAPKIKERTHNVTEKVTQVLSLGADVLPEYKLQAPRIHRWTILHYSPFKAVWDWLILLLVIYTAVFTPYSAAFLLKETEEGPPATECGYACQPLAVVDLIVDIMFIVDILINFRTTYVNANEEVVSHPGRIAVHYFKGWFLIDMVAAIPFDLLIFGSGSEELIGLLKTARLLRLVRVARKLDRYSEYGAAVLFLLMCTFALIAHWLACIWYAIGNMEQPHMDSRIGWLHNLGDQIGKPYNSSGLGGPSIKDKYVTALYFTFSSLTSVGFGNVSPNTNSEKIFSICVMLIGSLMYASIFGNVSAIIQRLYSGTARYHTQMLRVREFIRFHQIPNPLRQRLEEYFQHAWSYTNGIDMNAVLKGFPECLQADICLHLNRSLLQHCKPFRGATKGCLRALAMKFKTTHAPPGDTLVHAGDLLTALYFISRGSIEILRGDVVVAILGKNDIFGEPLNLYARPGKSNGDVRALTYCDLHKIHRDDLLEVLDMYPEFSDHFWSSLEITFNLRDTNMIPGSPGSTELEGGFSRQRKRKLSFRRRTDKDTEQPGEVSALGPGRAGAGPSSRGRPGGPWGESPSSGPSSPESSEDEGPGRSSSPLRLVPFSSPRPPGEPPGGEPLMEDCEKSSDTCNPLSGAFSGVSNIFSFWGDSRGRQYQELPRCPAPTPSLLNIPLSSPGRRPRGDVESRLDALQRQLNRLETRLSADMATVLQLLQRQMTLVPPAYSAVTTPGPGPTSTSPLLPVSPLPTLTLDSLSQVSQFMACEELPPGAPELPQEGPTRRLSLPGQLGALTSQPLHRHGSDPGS

Row | SMILES | hERG current change (%, negative = inhibition) at 10uM [%]
1 | COc1ccccc1C(=O)NNC1=C(C(=O)C(F)(F)F)CCC1 | -2.03
2 | Cc1ccc(S(C)=O)cc1-n1c(=O)n(Cc2ccccc2)c(=O)c2[nH]cnc21 (stereo not shown) | 19
3 | C=CC[C@H]1CC(C)=C[C@H](CC=C)[NH2+]1.[Cl-] | 34.7
4 | COc1ccc(C2/C=C\CN(Cc3ccc(N(C)C)cc3)CC(=O)N2Cc2ccc(F)cc2)cc1 (stereo not shown) | -15
5 | Cc1cc(C)nc(SCC(=O)N(C)CC(=O)Nc2c(Cl)cccc2Cl)n1 | 5.43
6 | O=C(c1cc(-c2ccc(O)cc2)on1)N1CCN(c2ccccc2)CC1 | -6.55
7 | CCCC(C(=O)NCC1CCCO1)N(Cc1ccco1)C(=O)CNS(=O)(=O)c1ccccc1 (stereo not shown) | 11.8
8 | COCCNc1nc(-c2ccccc2)nc2ccccc12.Cl | -32.5
9 | CC(=O)Nc1ccc(OC(=O)c2c(-c3ccccc3Cl)noc2C)cc1 | -15.9
10 | CC1CCCCN1CCNC(=O)c1cc2c(-c3ccccc3F)nn(C)c2s1 (stereo not shown) | -56.1
11 | Cc1ccccc1NC(=S)NC1CCCC1 | 18.2
12 | CCOC(=O)C1CCN(S(=O)(=O)c2cc(Br)cc3c2N(C(=O)C2CC2)CC3)CC1 | 13.6
13 | COCCCN1CC(=O)N2C(c3ccc(OC)c(OC)c3)c3[nH]c4ccccc4c3C[C@H]2C1=O (stereo partly shown) | 9.04
14 | Cc1ccc(C(=O)N2N=C3c4ccccc4S(=O)(=O)N3[C@H]2N(C)C)cc1 | -13.2
15 | CCCC(CCC)=NNC(=O)c1ccccc1F | 2.22
16 | CNS(=O)(=O)c1ccc(C(=O)NCC(=O)NCC2COc3ccccc3O2)cc1 (stereo not shown) | 12
17 | COc1ccc(CN=C(Nc2ccccc2)SC2CC(=O)NC2=O)cc1 (stereo not shown) | 2.39
18 | O=C(CCN1C(=O)c2ccccc2S1(=O)=O)Nc1cccc2ccccc12 | -5.33
19 | N#CCCn1cc(C(=O)Nc2ccccc2Cl)c(-c2ccc(F)cc2)n1 | 14
20 | N#CC1=C(N)OC2=C(C(=O)CC(c3ccco3)C2)C1c1ccc(OCc2c(F)cccc2Cl)cc1 (stereo not shown) | -1.84
21 | COc1ccc(Cl)cc1NC(=O)C1COc2ccccc2O1 (stereo not shown) | 2.73
22 | COc1cc(C)c(CNc2ccc(OC)c(OC)c2)cc1C | 7.7

Row | SMILES | hERG current change (%, negative = inhibition) at 10uM [%]
23 | Cc1ccc(Sc2cnc(N)nc2C)cc1 | 9.11
24 | COc1cc2c(cc1OC)CN(C(=O)c1ccc([N+](=O)[O-])o1)CC2 | -32.9
25 | Cc1c(NC(=O)CSc2nnnn2-c2ccc(O)cc2)c(=O)n(-c2ccccc2)n1C | -7.29
26 | O=c1c2ccccc2nnn1CSc1nnc(C2COc3ccccc3O2)n1-c1ccccc1 (stereo not shown) | -6.89
27 | COc1ccc(Cn2nc(C)cc2C)cc1OC | -1.14
28 | COc1ccc(Nc2nnc(-c3ccc(O)cc3)c3ccccc23)cc1C(N)=O | 16.4
29 | CC1CCN(c2nc(-c3ccncc3)nc3ccccc23)CC1 | -27
30 | COc1ccc(-c2sc(Nc3ccccc3)n[n+]2-c2ccc(F)cc2)c(OC)c1OC.[Cl-] | -72.2
31 | Cc1nn(Cc2ccccc2)c(C)c1NC(=O)c1ccc([N+](=O)[O-])cc1[N+](=O)[O-] | -57
32 | O=C1C(=O)N(CCCN2CCOCC2)C(c2ccc(F)cc2)/C1=C(/O)c1ccccc1 (stereo not shown) | 23
33 | Cc1cc(S(=O)(=O)NCc2ccccc2)ccc1OCC(=O)N1CCCC1 | -3.66
34 | CCOc1ccc(-c2cc(CCCC(=O)Nc3cccc(OC)c3)no2)cc1 | 15.9
35 | NC1=NC(=Nc2cccc(S(=O)(=O)N3CCOCC3)c2)c2ccccc21 | -14.5
36 | CC(=O)c1ccc(N2CCN(C(=O)C3CCCN(S(=O)(=O)c4cnc[nH]4)C3)CC2)cc1 (stereo not shown) | -3.5
37 | O=C1c2ccccc2C(=O)N1Nc1ccc([N+](=O)[O-])cc1[N+](=O)[O-] | 16
38 | CSc1ccc(C(=O)c2[nH]c(=O)[nH]c2C)cc1 | 6.03
39 | CC(=Nc1ccccc1)c1sc2ccccc2c1O | -10.8
40 | OCC[C@@H]1C[C@H](O)[C@@H](O)[C@@]2(Cc3ccccc3CCO2)O1 | 10.6
41 | Cc1c(C(=O)Nc2ccc(Nc3ccccc3)cc2)cccc1[N+](=O)[O-] | 13.2
42 | CN1CCN(C(=O)Cn2c(=O)oc3cc(S(=O)(=O)NCc4ccccc4)ccc32)CC1 | 5.52
43 | COc1ccccc1OCC(=O)Nc1cc(C)ccc1NC(=O)c1ccco1 | -0.0957
44 | COc1ccccc1OCC(=O)NCC(c1cccs1)N1CCOCC1 (stereo not shown) | -4.48

Row | SMILES | hERG current change (%, negative = inhibition) at 10uM [%]
45 | CCOc1ccc(S(=O)(=O)Nc2ccncc2)c(C)c1C | 8.19
46 | CCn1c(=O)[nH]c2ccccc2c1=O | 28.8
47 | CCC(CC)COC(=O)C1=C(C)NC(=O)NC1c1ccc2c(c1)OCO2 (stereo not shown) | -6.81
48 | CCOC(=O)c1cnc2c(cnn2C)c1NCCC#N | -7.43
49 | CCOC(=O)N1CCC(N2CCCC(C(=O)c3cc(F)ccc3OC)C2)CC1 (stereo not shown) | -86.7
50 | O=C(COC(=O)CNC(=O)c1ccc(Cl)cc1Cl)NCC1CCCO1 (stereo not shown) | -1.81
51 | COc1ccc(OC)c(C(=O)CSc2nnnn2C)c1 | 0.419
52 | Clc1ccccc1OCc1nnc2n1CCCCC2 | -19.2
53 | O=C(NCc1ccccc1CN1CCCCC1)c1ccc(Cl)cc1N1CCCC1=O | -30.4
54 | Cc1ccc2nc(SCC(=O)Nc3ccccc3N3CCOCC3)c(C#N)cc2c1 | 0.653
55 | O=C(O)c1ccccc1C(=O)NCc1c(Cl)cccc1Sc1ccc(Cl)cc1 | 10.7
56 | CCC(OC(=O)C1=Cc2ccccc2OC1)C(=O)NCc1ccco1 (stereo not shown) | 7.53
57 | COc1ccc(-c2oc(NC(=O)CSc3ncn[nH]3)c(C#N)c2-c2ccc(OC)cc2)cc1 | 13.7
58 | CCn1c(COc2cccc(OC)c2)nnc1SCC(=O)NCC1CCCO1 (stereo not shown) | 9.84
59 | CNC(=O)c1[nH]cnc1C(=O)N[C@@H](Cc1ccccc1)C(=O)OC(C)(C)C | -5.69
60 | S=c1[nH]nc(C2CCCCC2)n1/N=C/C(Cl)=C\c1ccccc1 | 5.07
61 | COc1ccccc1NC(=O)CCN1CC(C)OC(C)C1.Cl (stereo not shown) | -2.84
62 | COc1ccc2c(c1)SCC(=O)N2C | -11.1
63 | CN(C)CCn1c2c(c(SCC(=O)Nc3ccccc3)nc1=O)CCCC2 | -26.7
64 | Cc1ccc(/C=C2\C(=O)NC(=O)N(CC3CCCO3)C2=O)s1 (stereo not shown) | 13.1
65 | O=C(NCc1ccco1)C1CCCN1C(=O)Nc1ccc(Cl)cc1 (stereo not shown) | 9.16
66 | CCN(CC)C(=O)c1ccccc1NC(=O)CN1C(=O)c2ccccc2C1=O | 23

Row | SMILES | hERG current change (%, negative = inhibition) at 10uM [%]
67 | CC(=O)c1cccc(OCC(=O)Nc2ccccc2N2CCOCC2)c1 | -24.3
68 | Cc1ccccc1C(=O)NCC(=O)NNC(=O)CCN1CCN(c2ccccc2)CC1 | 21.3
69 | COc1ccccc1N1CCN(CC(=O)Nc2ccc3c(c2)OCCO3)CC1 | -6.03
70 | CCc1cc(=O)[nH]c(SCC(=O)NCC2CCCO2)n1 (stereo not shown) | -5.07
71 | COc1ccc(-n2nc(C(=O)NCC(=O)Nc3cc(OC)c(OC)c(OC)c3)c3ccccc3c2=O)cc1OC | 11.3
72 | CN(C(=O)/C=C/c1ccc([N+](=O)[O-])s1)c1ccccc1 | -8.63
73 | CC12CCC(=O)N1C(C(=O)Nc1ccccc1N1CCOCC1)CS2 (stereo not shown) | -5.99
74 | Cc1c(Cl)cccc1NC(=O)C1CCCN(S(C)(=O)=O)C1 (stereo not shown) | 22
75 | CC(=O)Nc1ccc2c(c1)CCCC2 | 5.05
76 | CC1CCN(CCC(=O)Nc2nccs2)CC1 | 15.5
77 | O=C(CN1C(=O)NC2(CCCC2)C1=O)OCc1cc(=O)n2cc(Br)ccc2n1 | 0.0178
78 | OCCNCC12CC3CC(CC(C3)C1)C2 | 22.9
79 | O=C(CCc1nnc2ccc(N3CCCC3)nn12)Nc1ccc(F)cc1F | 8.27
80 | CCc1nc(SCC(=O)Nc2ccccc2C)n[nH]1 | 16.2
81 | CCn1c(SCC(=O)Nc2cc(C)on2)nnc1-c1cccnc1 | 0.341
82 | C[C@@H](NC(=O)c1ncn(Cc2ccccc2)c1C(=O)N[C@H](C)c1ccccc1)c1ccccc1 | 14.1
83 | O=C(CNC(=S)N(CCCN1CCOCC1)Cc1cccs1)NCc1ccccc1Cl | -54.2
84 | O=C(O)C(=O)/C(=C\c1ccc([N+](=O)[O-])cc1)c1ccc2ccccc2n1 | -19.6
85 | O=C(COC(=O)c1ccco1)c1ccc(S(=O)(=O)N2CCCCC2)cc1 | 6.76
86 | Cc1ccccc1OCc1nc2ccccc2c(=O)n1/N=C/c1cn[nH]c1-c1ccc(Br)cc1 | 15.8
87 | CCOC(=O)c1[nH]c2ccccc2c1NC(=O)CN(C)C | 7.08
88 | c1ccc(-c2ccc(-c3[nH]ncc3CN3CCC(N4CCSCC4)CC3)cc2)cc1 | -80.7
